Laboratory results as given in ChEMBL document CHEMBL1156829.
Over roughly 5,400 compounds, “IFI” has its median near 2; the highest 2% begin near 22. Some of the results follow.

Assay: NOVARTIS: Inhibition Frequency Index (IFI) - the number of HTS assays where a compound showed > 50% inhibition/induction, expressed as a percentage of the number of assays in which the compound was tested.
Assay type: functional

CCN(CC)C(=O)COc1ccccc1CNCc1ccccc1 and CCc1ccccc1N1C(=O)CN(Cc2ccccc2)C1=S are the same in IFI: 0% for the first, 0% for the second.

Compared with CCCCOC(=O)Cc1ccc(N)cc1, CCCCCCCCCCCCOCCCNC(=O)c1cccc(N)c1 is lower in IFI: 7.09% for the first, 1.97% for the second.

Compared with CCC(c1nc2ccccc2c(=O)n1-c1cccc(C)c1)N(Cc1ccccc1)C(=O)Nc1c(C(C)C)cccc1C(C)C (stereo unspecified), COc1ccccc1-n1c(C(C)N(C)C(=O)Nc2ccccc2F)nc2ccccc2c1=O (stereo unspecified) is lower in IFI: 5.38% for the first, 4.9% for the second.

Compared with COc1cc(C2C(C#N)=C(N)Oc3cc4c(cc32)OCO4)cc(Br)c1OC (stereo unspecified), CN(CCCNc1ccnc2cc(Cl)ccc12)C(=O)c1ccc2c(c1)OCO2 is lower in IFI: 7.69% for the first, 1.87% for the second.

Compared with O=C(Nc1ccc(-c2nc3ccccc3[nH]2)cc1)c1cccc(C(=O)Nc2ccc(-c3nc4ccccc4[nH]3)cc2)n1, O=C(CN1CCN(C(=O)c2ccccc2)CC1)Nc1ccc(-c2nc3cc(NC(=O)CN4CCN(C(=O)c5ccccc5)CC4)ccc3o2)cc1 is lower in IFI: 11.1% for the first, 3.75% for the second.

Compared with COc1ccc(NC(=O)c2cc3cc(C4(O)CCN(CC(C)(C)C)CC4)ccc3o2)cc1OC, CCN1CCN(c2cc(C)c3cc(NC(=O)c4cc(=O)c5ccccc5o4)ccc3n2)CC1 is higher in IFI: 1.94% for the first, 9.2% for the second.

Compared with CCCC(=O)N(C/C=C/c1ccccc1OC)CCN1CCN(C(=O)Nc2cccc(C)c2)CC1, CCN1CCN(c2c(C(=O)c3ccccc3)cnc3cc(OC)c(OC)cc23)CC1 is lower in IFI: 2.8% for the first, 2.22% for the second.

Compared with CCSc1ncnc2scc(-c3ccccc3)c12, CCOC(=O)c1cnc2ccccc2c1Nc1ccc(C(C)=O)cc1 is higher in IFI: 1.19% for the first, 6.15% for the second.

CCOC(=O)C1=C(c2ccccc2)N=c2sc(=Cc3ccccc3O)c(=O)n2C1c1c(OC)ccc2ccccc12 (stereo unspecified) and NC(=O)/C(=C\c1cccc2ccccc12)NC(=O)c1ccccc1 are the same in IFI: 0% for the first, 0% for the second.

Compared with CCN(CC)S(=O)(=O)c1ccc2[nH]cc(C(=O)NCCCN3CCN(c4ccc(OC)cc4)CC3)c(=O)c2c1, CCOc1ccc2[nH]c(=O)c(CN(CCCN3CCOCC3)C(=S)NCCCN(CC)CC)cc2c1 is lower in IFI: 6% for the first, 4.42% for the second.

Compared with Cc1nc(NN=Cc2ccccc2O)cc(N2CCCCC2)n1, Cc1nn(-c2cc(N3CCOCC3)ccc2[N+](=O)[O-])c(=O)c2ccccc12 is higher in IFI: 0% for the first, 1.18% for the second.

Going from COc1cc(OC)c(NC(=O)C2c3ccccc3C(=O)N(C)C2c2cccs2)cc1Cl (stereo unspecified) to COc1ccccc1NC(=O)c1n[nH]c(=O)c2ccccc12, the IFI falls from 2.7% to 0%.

Going from Cc1ccc2nc(-c3ccc(NC(=O)c4ccc(S(=O)(=O)N5CC(C)CC(C)C5)cc4)cc3)sc2c1 (stereo unspecified) to O=C(O)c1ccc(S(=O)(=O)c2ccc3c(c2)C(=O)N(c2ccc(Sc4ccc([N+](=O)[O-])cc4)cc2)C3=O)cc1, the IFI falls from 2.3% to 0%.

CCOC(=O)CCC(=O)Oc1ccccc1-c1nc2cc(C)ccn2c1NC(C)(C)CC(C)(C)C and CCCCC(=O)Oc1ccccc1-c1nc2cc(C)ccn2c1NC(C)(C)CC(C)(C)C are the same in IFI: 4.67% for the first, 4.67% for the second.

O=C(NN=Cc1ccc(Br)cc1)c1ccco1 and O=C(NN=CC(Br)=Cc1ccccc1)c1ccc(F)cc1 are the same in IFI: 0% for the first, 0% for the second.

First: COC(=O)C1=C(C)N/C(=C\c2cc(C)n(-c3cc(Cl)ccc3Cl)c2C)C1=O
Second: C=CCN1C(=O)/C(=C\c2ccccc2)C(C(=O)OC)=C1C
The IFI of the first is lower: 0% for the first, 5.26% for the second.

First: CC(C)CNc1nc(NCCCn2ccnc2)ncc1C(=O)NCc1ccccc1
Second: CC(C)CNC(=O)c1cnc(NCCCn2ccnc2)nc1NCCc1ccccc1
The IFI of the first is higher: 1.94% for the first, 0.962% for the second.

Compared with CN(CCCNc1ccnc2cc(Cl)ccc12)C(=O)c1cccc(C(F)(F)F)c1, COc1cc(NC(C)CCCN(Cc2ccc(Cl)cc2)C(=O)Nc2ccccc2F)c2ncccc2c1 (stereo unspecified) is lower in IFI: 3.74% for the first, 3.67% for the second.

c1ccc(OCCOc2ccc(Nc3c4ccccc4nc4ccccc34)cc2)cc1 and Cn1c(=O)n(Cc2ccccc2)c(=O)c2c1nc(SCC(=O)Nc1ccccc1)n2Cc1ccccc1 are the same in IFI: 0% for the first, 0% for the second.

Compared with CCCn1c(=O)c(C(=O)NCC[N+](CC)(CC)CC)c(O)c2ccccc21, CCC(Sc1nc2ccccc2n1C(C)=O)C(=O)NC1=NN=C(c2ccc(Br)cc2)CS1 (stereo unspecified) is higher in IFI: 0% for the first, 5.71% for the second.

O=C(Cc1ccc(Cl)cc1)NNS(=O)(=O)c1ccc([N+](=O)[O-])cc1 and O=C(NC(=S)Nc1ccc([N+](=O)[O-])cc1Cl)c1ccco1 are the same in IFI: 0% for the first, 0% for the second.

Going from C/C(Cl)=C/C[N+]1(CC#Cc2cccc3ccccc23)CCOCC1 to Clc1ccc(C2Nc3ccc4ccccc4c3C3C=CCC32)c(Cl)c1 (stereo unspecified), the IFI falls from 3.03% to 0%.

First: Cc1cccc(OCC(O)CN2CCN(CC(=O)c3ccc(Br)cc3)CC2)c1 (stereo unspecified)
Second: CCOc1cc(Br)cc(C=NNC(=O)COc2cccc(C)c2)c1O
The IFI of the first is lower: 3.08% for the first, 5.15% for the second.

Compared with CCN1/C(=C/c2ccc3cc(OC)ccc3[n+]2CC)Sc2cc(C)ccc21, Cc1ccc(NC(=O)c2cc(C(=O)c3cc(Cl)ccc3O)cn(-c3ccc(C)cc3C)c2=O)c(C)c1 is lower in IFI: 21.8% for the first, 6.25% for the second.

Compared with COC(=O)C1=C(C)N(C)C(C)=C(C(=O)OC)C1c1ccc(C)cc1, CC1=C(C(=O)OCCOc2ccccc2)C(c2cccc([N+](=O)[O-])c2)C2=C(CCCC2=O)N1 (stereo unspecified) is lower in IFI: 2.35% for the first, 0% for the second.

Compared with O=C(CN(CCN1CCOCC1)S(=O)(=O)c1ccccn1)N1CCN(C(c2ccccc2)c2ccccc2)CC1, Cc1ccccc1NC(=S)NC(Cc1ccccc1)c1ccccc1 (stereo unspecified) is higher in IFI: 0% for the first, 6.82% for the second.

First: CCC(C)(C)n1nnnc1C(c1cc2cc(C)cc(C)c2[nH]c1=O)N1CCN(c2ccc(O)cc2)CC1 (stereo unspecified)
Second: Cc1ccn2c(NC(C)(C)CC(C)(C)C)c(-c3ccccc3OC(=O)C34CC5CC(CC(C5)C3)C4)nc2c1
The IFI of the first is higher: 2.73% for the first, 2.04% for the second.

Compared with COc1ccccc1Nc1nc2cc([N+](=O)[O-])c([N+](=O)[O-])cc2nc1Nc1cccc(Cl)c1, O=C(CC1SC(=Nc2ccccc2)NC1=O)Nc1cc(Cl)ccc1Cl (stereo unspecified) is higher in IFI: 0% for the first, 3.45% for the second.

Going from OC1CCCCC1C1(NC(=S)Nc2ccccc2)CCCCC1 (stereo unspecified) to CCCCC(=O)Nc1ccccc1-c1nnn(CC(=O)Nc2ccc3c(c2)OCCO3)n1, the IFI falls from 2.13% to 0%.

First: C=CCSc1nnc2c(n1)[nH]c1ccc(OCC)cc12
Second: OCC[n+]1ccc(/C=C/c2c[nH]c3ccccc23)cc1
The IFI of the first is higher: 11.3% for the first, 2.27% for the second.

For CC(C)=CCCC1=CCC(CNCCCN(C)C)C(C)C1 (stereo unspecified), the IFI was 8.96%.
